According to PubChem BioAssay AID2546 (National Center for Advancing Translational Sciences (NCATS), 2010):
Among all 310,000 compounds or so, about 11,000 (3.5%) were called active. Inconclusive results, whose numbers are uncertain, are shown with a selection of clear calls. The call rests on the fitted dose curve; in most records, active means well fitted inhibition curve with a large enough effect; inconclusive means small, poorly fitted or top-dose-only effect, or effect the other way; inactive means flat fitted curve, though single readings scatter. No potency is given beside an inconclusive call; the fits are too rough.

Assay: VP16 counterscreen qHTS for inhibitors of ROR gamma transcriptional activity;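 further: Gal4-VP16 expression switched on by copper sulfate through the metallothionein promoter; nearly all actives have a fitted effect of over 50% in size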
Settings: Drosophila S2 Gal4-VP16 UAS-luciferase, luminescence, 20 h; series mostly up to 53.6 µM
Potency means the concentration at half of the fitted maximal effect; tags describe the fitted curve by direction and shape.

SMILES | Potency
COc1cc(C(=S)N2CCOCC2)cc(OC)c1OS(=O)(=O)c1ccc(C)cc1 | inactive
NC(=O)c1ccccc1OCc1nc2ccccc2s1 | inconclusive [inhibitor, single point]
CCC(c1nnnn1C(C)(C)C)N(Cc1ccco1)Cc1cc2cccc(C)c2[nH]c1=O (stereo not given) | inconclusive [inhibitor, partial curve, poor fit]
O=C(Cc1ccc(Cl)c(Cl)c1)Nc1ccc(SC(F)F)cc1 | inconclusive [inhibitor, single point]
O=C(CCN1CCOCC1)c1ccc(Br)cc1 | active: 12.6 µM
COC(=O)c1c(C)[nH]c(C(=O)/C=C/c2ccccc2F)c1C | inconclusive [inhibitor, full curve]
O=C(Nc1cccnc1)c1cc(-c2cccnc2)nc2ccc(Br)cc12 | inactive
Cc1c(Cl)ccc2c(C(=O)O)cc(-c3ccccc3)nc12 | inconclusive [inhibitor, single point]
Cc1[nH]c(C)c(C(=O)/C=C/c2ccc([N+](=O)[O-])cc2)c1C | inconclusive [inhibitor, partial curve, poor fit]
O=C(Nc1nnc(-c2ccncc2)o1)c1ccc2ccccc2c1 | active: 0.562 µM
CC1=NN(C(=O)CSCc2ccccc2)C(O)(c2ccc(F)cc2)C1 (stereo not given) | inconclusive [inhibitor, single point]
Cc1ccc(NC(=S)NCc2ccc(F)cc2)c(C)c1 | active: 5.62 µM
O=C(COc1ccc(Cl)cc1Cl)NNC(=S)Nc1ccc(F)cc1 | inconclusive [inhibitor, single point]
COc1ccc(Cl)cc1S(=O)(=O)Nc1noc2ccccc12 | inactive
CC1(C)CC2(CC(c3ccccc3F)c3cc(Cl)c(O)cc3O2)NC(=S)N1 (stereo not given) | inconclusive [inhibitor, single point]
COC(=O)c1[nH]nc(C(=O)OC(C)(C)C)c1-c1ccccc1 | inconclusive [inhibitor, single point]
S=C(NCCc1ccc(Cl)cc1)Nc1ccc(Cl)cc1Cl | active: 4.47 µM
CCS(=O)(=O)N1CCC(C(=O)NC2CCCCC2)CC1 | inactive
Fc1ccc(-c2nnc(-c3ccc(Cl)cc3Cl)o2)cc1 | active: 10 µM
CC(=O)Nc1ccc(OC(=O)c2ccc(Br)c([N+](=O)[O-])c2)cc1 | inconclusive [inhibitor, single point]
Cc1cc(-n2c(SCC(=O)NCCC3=CCCCC3)nc3n[nH]c(C)c3c2=N)ccc1Cl | inconclusive [inhibitor, single point]
COc1ccccc1Nc1ncnc2ccccc12 | inconclusive [inhibitor, partial curve, poor fit]
CCOc1ccc(S(=O)(=O)Nc2cc(SCC(=O)O)c(O)c3ccccc23)cc1 | inconclusive [inhibitor, single point]
O=C(Nc1ccccc1)c1nnsc1S(=O)(=O)c1ccc(Cl)cc1 | active: 11.2 µM
COc1ccccc1CC(=O)NCCc1ccccc1 | inactive

SMILES | Potency
N#Cc1cc2cc3c(cc2nc1SCC(=O)N1CCOCC1)OCO3 | inactive
Nc1nc2ccc(NC(=O)c3ccco3)cc2s1 | inconclusive [inhibitor, single point]
CC(=O)CCc1oc2ccc(NC(C)=O)cc2c1-c1ccc(C)o1 | inconclusive [inhibitor, single point]
COc1ccc(NC(=O)c2ccc3c(c2)N(C)CCS3)cc1 | inactive
COC(=O)C1=C(C)NC(=S)NC1/C=C/c1ccccc1 (stereo not given) | active: 15.8 µM
Cc1nnc(N/N=C/c2ccco2)n1N | active: 12.6 µM
Cc1ccsc1C(=O)OCc1nc2ccccc2c(=O)[nH]1 | inconclusive [inhibitor, single point]
COc1ccc(OCC(O)CN(CC(O)COc2ccc(OC)cc2)c2cccc(O)c2)cc1 (stereo not given) | inconclusive [activator, single point]
COc1ccc(OCc2cccc(C(=O)NN)c2)cc1 | inconclusive [inhibitor, single point]
COc1ccc(CNCCc2ccccc2)cc1OCC(N)=O | inactive
O=C(NCCCN1CCCC1=O)c1ccc2c(=O)n(Cc3ccco3)c(=S)[nH]c2c1 | inactive
Nc1nc(-c2ccccc2)c(N=Nc2cccc3ccccc23)s1 | inconclusive [activator, single point]
COc1cccc(NC(=S)NC(=O)Cc2ccc(Cl)cc2)c1 | active: 7.08 µM
O=C(Nc1ccc(F)cc1)Nc1nnc(-c2ccco2)s1 | inconclusive [activator, full curve]
Cc1ccc(CNC(=O)c2cc3c(=O)n4ccccc4nc3n(Cc3ccco3)c2=N)cc1 | active: 2.82 µM
Cc1nc(NC(=O)CSc2ccc(-c3nc4ccccc4[nH]3)cn2)sc1C | inconclusive [inhibitor, single point]
C/C=C(\C)C(=O)OC1c2c(ccc3ccc(=O)oc23)OC(C)(C)C1OC(C)=O (stereo not given) | inconclusive [inhibitor, single point]
Cc1oc(-c2ccc(Cl)cc2)nc1CS(=O)CC(=O)NC1CCCCC1 (stereo not given) | inactive
CN(C(=O)c1cc(-n2cnnc2)ccc1Cl)c1ccccc1 | inactive
Cc1ccc(NC(=O)C(C)N2CCOCC2)c(C(=O)c2ccccc2)c1 (stereo not given) | inactive
CC1CC(C)(C)NC(=S)N1CCCC(=O)Nc1ccc(Br)cc1 (stereo not given) | inconclusive [inhibitor, single point]
COc1ccc(NC(=S)NC(=O)CC(C)C)c(OC)c1 | inconclusive [inhibitor, single point]
S=c1[nH]nc(-c2ccco2)n1/N=C/c1ccccc1Cl | active: 22.4 µM
CC1=NOC(=O)/C1=C/c1ccc(O)c(Cl)c1 | active: 15.8 µM
CS(=O)(=O)N1CCN(c2ccccc2NC(=S)NC(=O)c2ccccc2[N+](=O)[O-])CC1 | inconclusive [inhibitor, single point]
